The whole screen tested about 360,000 compounds, of which about 16,000 (4.4%) were called active. This list was built around the results that the source calls inconclusive (neither active nor inactive); the mix of calls is not that of the screen. Calls follow the shape of the dose curve; as a rule, active = well fitted inhibition curve with a large enough effect; inconclusive = small, poorly fitted or top-dose-only effect; inactive = no such curve, though single readings can be large or run the other way. Potencies of inconclusive entries are doubtful fits and often do not repeat.
target: Bromodomain adjacent to zinc finger domain protein 2B (Homo sapiens) (UniProt Q9UIF8); experiment: qHTS Assay for Inhibitors of BAZ2B; details: AlphaScreen BAZ2B-H3K14Ac peptide displacement; series mostly up to 114 µM; also: nearly all actives have a fitted effect of over 60% in size
Method in brief: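 Protein-peptide AlphaScreen: BAZ2B 50 nM, b-H3K14Ac 50 nM, 1x PBS pH 7.4 + 0.01% Tween-20. Preincubation 30 min RT; cpd 30 min RT (top 110 uM); beads 20 min RT, light-protected.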
Potency is read from the fitted curve at half-maximal effect; tags tell the direction and shape of the fitted curve.

UniProt Q9UIF8, sequence (Q9UIF8 whole entry, looked up, the tested form may be a part): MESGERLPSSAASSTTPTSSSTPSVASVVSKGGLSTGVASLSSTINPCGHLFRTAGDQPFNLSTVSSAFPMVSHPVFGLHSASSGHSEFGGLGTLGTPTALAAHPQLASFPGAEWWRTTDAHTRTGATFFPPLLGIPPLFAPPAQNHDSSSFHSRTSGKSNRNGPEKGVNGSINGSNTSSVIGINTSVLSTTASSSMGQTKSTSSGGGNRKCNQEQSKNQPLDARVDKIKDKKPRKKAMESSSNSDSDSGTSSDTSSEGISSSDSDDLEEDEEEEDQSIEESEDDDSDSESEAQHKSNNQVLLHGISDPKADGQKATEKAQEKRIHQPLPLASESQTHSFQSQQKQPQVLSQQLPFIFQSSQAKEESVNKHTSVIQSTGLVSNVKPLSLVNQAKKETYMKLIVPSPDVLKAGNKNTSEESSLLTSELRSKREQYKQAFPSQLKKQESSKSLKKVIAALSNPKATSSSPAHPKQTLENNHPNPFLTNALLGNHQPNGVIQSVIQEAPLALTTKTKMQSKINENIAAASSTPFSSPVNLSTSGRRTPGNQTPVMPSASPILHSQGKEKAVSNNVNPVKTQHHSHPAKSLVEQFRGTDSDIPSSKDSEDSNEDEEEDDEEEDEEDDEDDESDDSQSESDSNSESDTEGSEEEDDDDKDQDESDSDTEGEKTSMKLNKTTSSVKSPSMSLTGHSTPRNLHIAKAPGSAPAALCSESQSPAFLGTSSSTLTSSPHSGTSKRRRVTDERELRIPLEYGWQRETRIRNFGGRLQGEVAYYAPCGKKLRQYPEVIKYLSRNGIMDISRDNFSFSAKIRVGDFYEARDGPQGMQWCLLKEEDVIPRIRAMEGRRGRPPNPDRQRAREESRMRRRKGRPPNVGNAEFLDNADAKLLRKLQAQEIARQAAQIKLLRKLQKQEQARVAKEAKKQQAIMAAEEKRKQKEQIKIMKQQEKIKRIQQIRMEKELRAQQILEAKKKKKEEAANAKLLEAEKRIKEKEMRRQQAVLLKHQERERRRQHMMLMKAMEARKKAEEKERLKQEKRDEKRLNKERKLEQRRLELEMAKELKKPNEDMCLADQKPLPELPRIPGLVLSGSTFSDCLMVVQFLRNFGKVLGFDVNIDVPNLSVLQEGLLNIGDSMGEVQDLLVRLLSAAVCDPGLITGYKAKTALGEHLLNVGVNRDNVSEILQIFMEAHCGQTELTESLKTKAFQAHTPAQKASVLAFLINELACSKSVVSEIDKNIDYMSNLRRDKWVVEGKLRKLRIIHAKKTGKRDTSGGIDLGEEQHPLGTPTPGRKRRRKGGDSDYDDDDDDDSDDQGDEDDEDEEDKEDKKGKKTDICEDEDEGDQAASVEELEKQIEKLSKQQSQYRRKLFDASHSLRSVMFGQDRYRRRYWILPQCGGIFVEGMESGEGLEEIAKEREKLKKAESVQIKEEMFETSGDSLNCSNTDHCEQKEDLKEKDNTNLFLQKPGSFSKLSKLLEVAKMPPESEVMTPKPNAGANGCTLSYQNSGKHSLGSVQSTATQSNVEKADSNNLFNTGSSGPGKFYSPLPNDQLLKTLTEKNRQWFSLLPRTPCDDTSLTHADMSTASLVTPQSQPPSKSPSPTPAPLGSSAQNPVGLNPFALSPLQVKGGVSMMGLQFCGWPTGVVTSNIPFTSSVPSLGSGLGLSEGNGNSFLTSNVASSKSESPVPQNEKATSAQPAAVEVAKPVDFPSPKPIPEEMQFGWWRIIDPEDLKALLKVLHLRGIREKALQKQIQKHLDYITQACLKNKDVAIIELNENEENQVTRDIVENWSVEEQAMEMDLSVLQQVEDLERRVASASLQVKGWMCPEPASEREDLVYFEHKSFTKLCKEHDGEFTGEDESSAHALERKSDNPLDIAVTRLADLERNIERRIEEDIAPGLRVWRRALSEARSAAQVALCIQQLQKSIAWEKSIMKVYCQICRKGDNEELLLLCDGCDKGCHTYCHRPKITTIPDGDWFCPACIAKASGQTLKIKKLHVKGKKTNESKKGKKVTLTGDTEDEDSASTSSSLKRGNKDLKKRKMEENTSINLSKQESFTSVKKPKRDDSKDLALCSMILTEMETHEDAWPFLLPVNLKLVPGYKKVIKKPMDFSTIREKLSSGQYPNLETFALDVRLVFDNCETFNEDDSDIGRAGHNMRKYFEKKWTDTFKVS

| Structure (SMILES) | Potency |
| --- | --- |
| Cn1c(C(O)c2ccc3c(c2)OCO3)nc2ccccc21 (centres undefined) | inactive |
| CCSC1=N/C(=C\c2ccc(C)s2)C(=O)S1 | inactive |
| NC(=O)c1ccc(NC(=O)COC(=O)CCC(=O)c2ccc(Cl)cc2)cc1 | inactive |
| COc1ccc(/C=C2/Sc3ccc(C(=O)NCCCN4CCOCC4)cc3NC2=O)cc1OC | inconclusive: 0.631 µM [inhibitor, full curve, poor fit] |
| O=C(Oc1c(Br)cc(C(=S)N2CCOCC2)cc1Br)c1ccc(Cl)cc1 | inconclusive: 8.91 µM [inhibitor, full curve, poor fit] |
| COC(=O)C1=C(C)N(Cc2ccccc2)C(=O)/C1=C\c1ccco1 | active: 17.8 µM |
| Cc1ccccc1C(=O)N1CCC(C(=O)N2CCCc3ccccc32)CC1 | inactive |
| O=C(c1ccccn1)c1cc2ccccc2n1S(=O)(=O)c1ccccc1 | inconclusive: 89.1 µM [inhibitor, single point] |
| CCOC(=O)Nc1ccc2c(c1)N(C(=O)N1CCN(C)CC1)c1ccccc1S2 | inconclusive: 89.1 µM [inhibitor, single point] |
| O=[N+]([O-])c1cc([N+](=O)[O-])c(N2CCCCCC2)cc1NCCO | inconclusive: 50.1 µM [inhibitor, partial curve] |
| COc1ccc(C(=O)N(CC(=O)Nc2sc(C)c(C)c2C(N)=O)C2CCCC2)cc1 | inactive |
| COC(=O)c1cn(C)c2ccc(S(=O)(=O)N3CC(C)CC(C)C3)cc2c1=O (centres undefined) | inconclusive: 89.1 µM [inhibitor, single point] |
| c1ccc2c(Nc3ccc(N4CCOCC4)cc3)nc(N3CCOCC3)nc2c1 | inconclusive: 89.1 µM [inhibitor, single point] |
| Cc1ccn2cc(-c3cccc(S(=O)(=O)N4CCCCC4)c3)nc2c1 | inconclusive: 50.1 µM [inhibitor, partial curve] |
| Cc1nc2ccccc2c(C)c1CC(=O)N(CC(C)C)c1c(N)n(Cc2ccccc2)c(=O)[nH]c1=O | inactive |
| CC1CCCC/C1=N/Nc1ccc([N+](=O)[O-])cc1[N+](=O)[O-] (centres undefined) | inconclusive: 8.91 µM [inhibitor, partial curve, poor fit] |
| O=C(O)CCCCCCNS(=O)(=O)c1ccccc1 | inconclusive: 100 µM [inhibitor, single point] |
| COc1ccc(OC)c(NC(=O)CSc2nnc(CNC(=O)c3cccs3)o2)c1 | inactive |
| O=[N+]([O-])c1cccc2c(S(=O)(=O)N3CCOCC3)cccc12 | inconclusive: 89.1 µM [inhibitor, single point] |
| Cc1ccc(C)c(Nc2c(F)c(F)c(F)c(F)c2C(=O)O)c1 | inactive |
| O=[N+]([O-])c1ccc(Sc2cccc3cccnc23)c2cccnc12 | inconclusive: 20 µM [inhibitor, full curve] |
| COc1ccc(NC(=O)c2c(-c3ccc(C)cc3)nnc3ccccc23)c(OC)c1 | inconclusive: 39.8 µM [inhibitor, partial curve] |
| COC(CNC(=O)c1cccnc1)OC | inactive |
| O=C1c2ccccc2NC(c2ccc(-c3cccs3)o2)N1O (centres undefined) | inconclusive: 89.1 µM [inhibitor, single point] |
| Cc1cc(C)cc(C(=O)N[C@@H](C)C(=O)N2CCC3(CC2)NCCc2[nH]cnc23)c1 | inactive |

| Structure (SMILES) | Potency |
| --- | --- |
| N#Cc1nc(Cc2cccc3ccccc23)oc1N1CCN(c2ccccc2)CC1 | inconclusive: 3.16 µM [inhibitor, full curve, poor fit] |
| CC(C)n1c(O)c(N=NC(=O)C2COc3ccccc3O2)c2ccccc21 (centres undefined) | inconclusive: 20 µM [inhibitor, full curve] |
| COc1ccc2c(C)nc(Nc3nc(-c4ccccc4)cc(=O)[nH]3)nc2c1 | active: 79.4 µM |
| O=C(NCCCN1CCN(c2ccc(F)cc2)CC1)c1ccc2nc(Cc3ccccc3)oc2c1 | active: 31.6 µM |
| COc1ccc(C(=O)NCc2nnc(SCC(=O)NC3CCCC3)o2)cc1 | inactive |
| CC(C)(C)c1ccc(C(=O)NC(=S)NCC2CCCO2)cc1 (centres undefined) | inactive |
| CCN(C(=O)COC(=O)C1CC1C)c1c(N)n(Cc2ccccc2)c(=O)[nH]c1=O (centres undefined) | inactive |
| N#C/C(=C\C1=C(N2CCOCC2)C(=C\c2ccc(Cl)cc2)/CC1)C(=O)Nc1ccccc1F | active: 25.1 µM |
| Cc1ccc(/C=N/NC(=O)Cc2cccn2C)s1 | inconclusive: 56.2 µM [inhibitor, partial curve] |
| Cc1ccc(Cl)cc1Nc1nc(-c2sc(NC(=O)c3ccco3)nc2C)cs1 | inconclusive: 44.7 µM [inhibitor, partial curve] |
| COc1ccccc1CNC(=O)c1ccc2c(c1)nc(C)n2-c1ccccc1OC | inactive |
| COc1ccccc1Nc1nc(-c2sc(NC(=O)c3cccc(Cl)c3)nc2C)cs1 | inconclusive: 70.8 µM [inhibitor, single point] |
| COc1cc(C(=O)NCC(=O)N/N=C/c2ccco2)cc(OC)c1OC | inactive |
| C=CCC1c2cccc(C(=O)O)c2C(=O)N1c1cccc(OC)c1 (centres undefined) | inconclusive: 50.1 µM [inhibitor, partial curve] |
| CC(Nc1ccc(S(=O)(=O)N2CCN(C)CC2)cc1[N+](=O)[O-])c1ccccc1 (centres undefined) | inconclusive: 50.1 µM [inhibitor, partial curve] |
| Cc1sc(NC(=O)c2ccco2)c(C(Nc2ccccn2)c2ccccc2)c1C (centres undefined) | inactive |
| COc1cccc(NC(=S)N2CCN(S(=O)(=O)c3ccccc3)CC2)c1 | inconclusive: 79.4 µM [inhibitor, single point] |
| O=C(NCc1ccc(F)cc1)c1cc2c(=O)n3ccccc3nc2s1 | inactive |
| CCc1nnc(NS(=O)(=O)c2ccc(NC(=S)NC(=O)c3ccccc3)cc2)s1 | inconclusive: 89.1 µM [inhibitor, single point] |
| NS(=O)(=O)c1ccc(NC(=O)N2c3ccccc3Sc3ccccc32)cc1 | active: 50.1 µM |
| O=C(COc1nsnc1N1CCOCC1)N1CCOCC1 | inconclusive: 89.1 µM [inhibitor, single point] |
| Cc1ccc(NC(=O)CSc2ccc(Br)cc2)cc1S(=O)(=O)N1CCOCC1 | inactive |
| COc1cc(C(C)=O)ccc1OCc1nnc(-c2ccccc2Br)o1 | inactive |
| CC(=O)c1cc(C#N)c(N2CCCCC2)nc1C | active: 56.2 µM |
| CN(CC(=O)Nc1cccc(F)c1)CC(=O)Nc1ccccc1Oc1ccccc1 | active: 25.1 µM |

| Structure (SMILES) | Potency |
| --- | --- |
| COCCCC1CCN(C(=O)C2CCC(=O)N(Cc3cccc(F)c3)C2)CC1 (centres undefined) | inactive |
| Cc1ccc(NC(=O)CN2C(=O)S/C(=C/c3ccncc3)C2=O)cc1 | inconclusive: 44.7 µM [inhibitor, partial curve] |
| C=CCn1c(SCc2ccc([N+](=O)[O-])cc2)nnc1C(C)NC(=O)c1ccccc1 (centres undefined) | inconclusive: 89.1 µM [inhibitor, single point] |
| COc1cc(CN2CCN(Cc3c[nH]c4ccccc34)CC2CCO)cc(OC)c1 (centres undefined) | inactive |
| Cc1c(-c2ccc(Br)cc2)nc2ccccn12 | inactive |
| Cc1cc2c(cc1C)N(C(=O)CN1C(=O)c3ccccc3C1=O)C(C)(C)c1ssc(=S)c1-2 | active: 8.91 µM |
| CCOC(=O)c1nn(-c2ccc(C)cc2)cc1O | inconclusive: 8.91 µM [inhibitor, single point] |
| Cc1ccc(S(=O)(=O)Nc2ccc(C(OC(=O)c3ccccc3[N+](=O)[O-])(C(F)(F)F)C(F)(F)F)cc2)cc1 | inconclusive: 56.2 µM [inhibitor, partial curve] |
| CCc1c(C)sc(NC(=O)c2cc(C3CC3)on2)c1C#N | inactive |
| CCc1ccc(C2c3[nH]c4ccccc4c3CCN2C(=O)c2cc[n+]([O-])cc2)cc1 (centres undefined) | inconclusive: 50.1 µM [inhibitor, partial curve] |
| COc1cccc(C(=O)NC(=S)Nn2cnnc2)c1OC | inconclusive: 79.4 µM [inhibitor, partial curve] |
| O=C(NNc1nc2ccccc2s1)c1ccc(F)cc1 | inactive |
| O=C(COc1cccc(NC(=O)c2ccco2)c1)c1ccccc1 | inconclusive: 56.2 µM [inhibitor, partial curve, poor fit] |
| COC(=O)c1ccc(NC(=O)CC2C(=O)N(c3ccc(Cl)cc3)C(=O)N2Cc2ccco2)cc1 (centres undefined) | inconclusive: 89.1 µM [inhibitor, single point] |
| O=C(c1ccc2c(c1)OCO2)N1CCc2ccccc21 | inconclusive: 3.98 µM [inhibitor, single point] |
| CC1=C(c2ccc(C)cc2)S(=O)(=O)NC1=NCc1cccc(F)c1 | inconclusive: 79.4 µM [inhibitor, single point] |
| CCN1C(=O)c2ccccc2S(=O)c2ccc(C(=O)N3CCN(c4cccc(C)c4)C(C)C3)cc21 (centres undefined) | inconclusive: 50.1 µM [inhibitor, partial curve] |
| Cc1cc(C)c2c(c1)C(=O)/C(=C/c1ccc(C(=O)O)cc1)CC2 | inconclusive: 79.4 µM [inhibitor, single point] |
| COc1ccc(-n2c(C)cc(/C=C3/SC(=S)N(C)C3=O)c2C)cc1 | inactive |
| O=C(NCC(=O)N1CCN(c2cccc(Cl)c2)CC1)c1ccc(Br)o1 | inactive |
| CCc1ccc2c(c1)C1(NN=C(c3ccc(C)cc3)S1)C(=O)N2 (centres undefined) | active: 7.94 µM |
| CCOc1ccc(NC(=O)c2ccccc2NS(=O)(=O)c2ccc(F)cc2)c([N+](=O)[O-])c1 | inconclusive: 35.5 µM [inhibitor, full curve] |
| CC(=O)Cc1nsc(NC(=O)C2Cc3ccccc3C(=O)O2)n1 (centres undefined) | inactive |
| O=C(COc1ccc2ccccc2c1)NCC1CCCO1 (centres undefined) | inactive |

— PubChem BioAssay AID504333 (National Center for Advancing Translational Sciences (NCATS), 2011)
